In PubChem BioAssay AID1468 (National Center for Advancing Translational Sciences (NCATS), 2008):
The whole screen tested about 280,000 compounds, of which about 1,100 (0.39%) were called active. The shares of active, inactive and inconclusive entries below differ from those in the screen. Calls follow the shape of the dose curve; as a rule, active = well fitted inhibition curve with a large enough effect; inconclusive = small, poorly fitted or top-dose-only effect, or effect the other way; inactive = flat fitted curve, though single readings scatter. Potencies beside an inconclusive call are fits to weak or partial responses and may not hold up.

The compounds below were run against Microtubule-associated protein tau (Homo sapiens) (UniProt P10636) (assay: qHTS for Inhibitors of Tau Fibril Formation, Fluorescence Polarization). Details: K18 P301L tau heparin fibrillization, Alexa594 FP, 6 h; series mostly up to 57.7 µM.
UniProt P10636, sequence (P10636 whole entry, looked up): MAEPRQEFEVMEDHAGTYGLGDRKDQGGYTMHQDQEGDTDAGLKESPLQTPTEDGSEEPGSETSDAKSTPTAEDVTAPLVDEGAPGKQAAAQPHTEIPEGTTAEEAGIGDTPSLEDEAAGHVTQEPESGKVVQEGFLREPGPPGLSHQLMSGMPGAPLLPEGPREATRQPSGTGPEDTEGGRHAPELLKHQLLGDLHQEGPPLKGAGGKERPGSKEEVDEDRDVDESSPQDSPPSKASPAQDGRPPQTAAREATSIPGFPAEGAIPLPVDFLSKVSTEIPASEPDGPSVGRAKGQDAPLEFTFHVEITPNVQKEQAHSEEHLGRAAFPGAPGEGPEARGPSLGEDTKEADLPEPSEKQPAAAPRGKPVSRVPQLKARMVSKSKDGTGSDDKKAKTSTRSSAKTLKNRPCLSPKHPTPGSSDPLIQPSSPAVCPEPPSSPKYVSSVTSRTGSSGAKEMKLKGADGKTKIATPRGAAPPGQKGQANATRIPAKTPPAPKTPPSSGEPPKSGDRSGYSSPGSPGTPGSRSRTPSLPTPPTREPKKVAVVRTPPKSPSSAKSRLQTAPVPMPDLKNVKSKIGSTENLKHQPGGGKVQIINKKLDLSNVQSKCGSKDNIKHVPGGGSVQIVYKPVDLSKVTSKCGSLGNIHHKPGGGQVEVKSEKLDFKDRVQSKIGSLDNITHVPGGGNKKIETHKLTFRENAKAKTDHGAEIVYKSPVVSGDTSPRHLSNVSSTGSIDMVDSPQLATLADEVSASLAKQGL
Excerpt: NIH Molecular Libraries Probe Production Network [MLPCN]
NIH Chemical Genomics Center [NCGC]
Assay Provider: Carlo Ballatore, University of Pennsylvania
The microtubule-associated protein tau is an abundant protein in the axons of neurons that stabilizes microtubules. With its ability to modulate microtubule dynamics, tau contributes directly or indirectly, to key structural and regulatory cellular functions. Particularly important is the influence tau exerts on axonal transport, which allows signaling molecules, trophic factors and other essential cellular constituents to travel along the axons. Under pathological conditions, tau becomes sequestered into insoluble aggregates called neurofibrillary tangles. This phenomenon is believed to have pathological consequences by promoting axonal transport deficits that ultimately lead to synaptic dysfunction and neuronal loss. To identify inhibitors of tau aggregation, a heparin-induced tau fibril formation assay was used that employed a recombinantly expressed fragment of tau, K18 (Q242-E372), bearing a P301L mutation (Gustke et al. 1994; Hong et al. 1998).
Gustke, N., B. Trinczek, et al. (1994). "Domains of tau protein and interactions with microtubules." Biochemistry 33(32): 9511-22.
Hong, M., V. Zhukareva, et al. (1998).
Li, W. and V. M. Lee (2006). "Characterization of two VQIXXK motifs for tau fibrillization in vitro." Biochemistry 45(51): 15692-701.
von Bergen, M., S. Barghorn, et al. (2001). "Mutations of tau protein in frontotemporal dementia promote aggregation of paired helical filaments by enhancing local beta-structure." J Biol Chem 276(51): 48165-74.
NCGC Assay Protocol Summary:
For screening, 2 uL/well human K18 P301L (15 uM unlabeled and 0.24 uM Alexa 594-labeled tau final concentrations) in reagent buffer (100 mM sodium acetate pH 7) was dispensed into black solid 1536-well plates (Grenier) using a solenoid-based dispenser. Following transfer of 23 nL compound or DMSO vehicle by a pin tool, 2 uL/well heparin (20 uM final concentration) in reagent buffer was added and the plate centrifuged 15 s at 1000 RPM. Plates were incubated 6 hr at 37 C and then 1 uL/well ThT (30 uM final concentration) was added. After a 1 hr ambient incubation, the plates were read by an Envision (Perkin Elmer) to monitor Alexa 594 FP (555 nm excitation and 632 nm emission).
Keywords: NIH Roadmap, MLPCN, MLI, MLSMR, NCGC, qHTS, tau, tauopathies, Alzheimer's disease, fibril, neurodegeneration, aggregation
Also: nearly all actives have a fitted effect of over 55% in size.
Potency is read from the fitted curve at half-maximal effect; tags tell the direction and shape of the fitted curve.

Potency, active:
CN(C)c1ccc(NC2=C(Cl)C(=O)c3ccccc3C2=O)cc1 14.1 µM

Potency, inconclusive:
CCOC(=O)C1CCCN(C(=O)c2cc(Nc3ccc(OC)c(OC)c3)nc3ccccc23)C1 (stereo unspecified) 1 µM [activator, partial curve]
Cc1cc(C)c2c(N)c(S(=O)c3ccc(C(C)(C)C)cc3)sc2n1 (stereo unspecified) 28.2 µM [inhibitor, partial curve]
CCOc1cc(/C=C2\C(=O)N(Cc3ccco3)C(C)=C2C(=O)OC)ccc1O 39.8 µM [inhibitor, single point]
CCOc1cc(/C=C2\C(=O)N(Cc3ccc(C)cc3)C(C)=C2C(=O)OC)ccc1O 31.6 µM [inhibitor, single point]
COc1cccc(CNC(=O)c2ccc(-n3c(C)cc4c3CCC(C)C4)cc2)c1 (stereo unspecified) 35.5 µM [inhibitor, single point]
CCOC(=O)c1[nH]c2ccccc2c1NC(=O)c1ccc(Br)cc1 0.141 µM [inhibitor, full curve, poor fit]
CC(=O)c1cccc(NS(=O)(=O)c2ccc(N/C=C\C(=O)c3ccc(F)cc3)cc2)c1 12.6 µM [inhibitor, partial curve]
N/C(CC(=O)NC1CCCCC1)=N\OCC(=O)Nc1ccc(Cl)c(Cl)c1 12.6 µM [inhibitor, single point]
Cc1c(NN=C(C#N)C#N)c(=O)n(-c2ccccc2)n1C 5.01 µM [inhibitor, single point]
O=C(CSc1nc(O)cc(=O)[nH]1)Nc1ccc2c(c1)CCC2 44.7 µM [inhibitor, single point]
Cc1nn(C)cc1/C=N/NC(=O)c1ccc2c(c1)OCO2 44.7 µM [inhibitor, single point]
O=C(NCCc1c[nH]c2ccccc12)C(=O)NCC(c1ccco1)N1CCN(c2ccccc2)CC1 (stereo unspecified) 14.1 µM [activator, partial curve, poor fit]
Cc1ccccc1-c1nnn(CC(=O)Nc2sc3c(c2C#N)CCC(C(C)(C)C)C3)n1 (stereo unspecified) 20 µM [inhibitor, partial curve]
O=C(CS(=O)CC(=O)N(c1ccccc1)C(C(=O)NC1CCCC1)c1cccs1)Nc1ccc(F)cc1 (stereo unspecified) 25.1 µM [inhibitor, partial curve]
CC1C2(C)OCC(C#N)(C(=N)O2)C1(C#N)C#N (stereo unspecified) 39.8 µM [inhibitor, single point]
CCOC(=O)c1c(NC(=O)c2nc(S(C)(=O)=O)ncc2Cl)sc(C(C)=O)c1C 39.8 µM [inhibitor, single point]
O=C(Nc1nc(-c2ccccn2)cs1)c1ccc([N+](=O)[O-])o1 39.8 µM [inhibitor, partial curve]
O=S(=O)(c1ccc(NC(=S)NCc2cccnc2)cc1)N1CCCCC1 39.8 µM [inhibitor, single point]
CCOc1ccc(-c2nnc(SCC(=O)Nc3cccc(OC)c3)nc2-c2ccc(OCC)cc2)cc1 35.5 µM [inhibitor, single point]
Cc1ccc(C)c2[nH]c(=O)c(C(c3nnnn3Cc3ccco3)N3CCc4ccccc4C3)cc12 (stereo unspecified) 31.6 µM [inhibitor, partial curve]
COc1cc(/C=C2/C(=O)NN(c3cccc(C)c3)C2=O)ccc1OC(=O)c1ccco1 17.8 µM [inhibitor, single point]
CCOC(=O)/C=C/C(=O)Nc1ccccc1-c1ccccc1NC(=O)/C=C/C(=O)OCC 15.8 µM [inhibitor, partial curve]
C/C(=C\C(=S)Nc1ccccc1)Nc1ccc2ccccc2c1 22.4 µM [inhibitor, partial curve]
COc1cccc(Nc2nc(N)c([N+](=O)[O-])c(NCc3ccccc3)n2)c1 28.2 µM [inhibitor, partial curve]
CCOCCCNC(=O)c1cc(Sc2ccc(C)cc2)nc2ccccc12 28.2 µM [activator, single point]
COc1cc(/C=N/NC(=O)CC2(C)OCCO2)cc(Br)c1O 44.7 µM [inhibitor, single point]
COc1ccc(NS(=O)(=O)c2ccc3nc(-c4ccccc4)[nH]c3c2)cc1 22.4 µM [inhibitor, partial curve]
CCOc1ccc(-c2nn(-c3ccccc3)cc2/C=C2\SC(N)=NC2=O)cc1C 11.2 µM [inhibitor, partial curve, poor fit]
C=CCN1C(=O)N/C(=C/c2ccc(C)o2)C1=O 39.8 µM [inhibitor, single point]
COc1cccc(C2C3CN(C)CC=C3C(C#N)=C(N)C2(C#N)C#N)c1OC (stereo unspecified) 31.6 µM [inhibitor, single point]
COc1ccc(C2C=C(c3ccc(Cl)c(Cl)c3)Nc3ncnn32)cc1 (stereo unspecified) 20 µM [inhibitor, single point]

Potency, inactive:
CC(Oc1ccccc1)C(=O)Nc1ccc(S(=O)(=O)NCC2CCCO2)cc1 (stereo unspecified)
Cc1cc[n+](C2=C([O-])c3ccccc3C(=O)/C2=N\S(=O)(=O)c2cccs2)cc1C
Cc1ccc2nc(-c3ccccn3)cc(C(=O)NC3CCN(C)CC3)c2c1
CCC/C=C(\CCC)C(NP(=O)(c1ccccc1)c1ccccc1)c1ccc(-c2ccccc2)cc1 (stereo unspecified)
COC(CNC(=O)CNC(=S)N(CCCN1CCOCC1)Cc1cccs1)OC
CCN(CC(=O)NC(=O)NC1CCCCC1)Cc1nc2ccccc2c(=O)[nH]1
CCOc1ccc(-c2nc3c(c(SCC(=O)N4CCCCC4)n2)Cc2cccc(OC)c2O3)cc1
C=CCn1c(SCc2ccc(F)cc2)nc2c1c(=O)[nH]c(=O)n2C
Cc1cc(-n2c(C)nc3ccccc3c2=O)ccc1NC(=O)C(F)(F)F
